Data as given in publication PMC4336329 (PLoS ONE, 2015).
About 14,000 (4.5%) of roughly 310,000 compounds showed an effect of 50% or more. Effects have a minus sign here. The list shows a part of the results.

What follows are compounds tested against human ether-à-go-go-related gene (hERG) potassium channel (human, UniProt Q12809) (assay: primary screen, population patch clamp on CHO cells stably expressing hERG).
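Also: peak tail current of the secondary pulse compared with the same well before compound.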

human ether-à-go-go-related gene (hERG) potassium channel, sequence (Q12809 whole entry, looked up): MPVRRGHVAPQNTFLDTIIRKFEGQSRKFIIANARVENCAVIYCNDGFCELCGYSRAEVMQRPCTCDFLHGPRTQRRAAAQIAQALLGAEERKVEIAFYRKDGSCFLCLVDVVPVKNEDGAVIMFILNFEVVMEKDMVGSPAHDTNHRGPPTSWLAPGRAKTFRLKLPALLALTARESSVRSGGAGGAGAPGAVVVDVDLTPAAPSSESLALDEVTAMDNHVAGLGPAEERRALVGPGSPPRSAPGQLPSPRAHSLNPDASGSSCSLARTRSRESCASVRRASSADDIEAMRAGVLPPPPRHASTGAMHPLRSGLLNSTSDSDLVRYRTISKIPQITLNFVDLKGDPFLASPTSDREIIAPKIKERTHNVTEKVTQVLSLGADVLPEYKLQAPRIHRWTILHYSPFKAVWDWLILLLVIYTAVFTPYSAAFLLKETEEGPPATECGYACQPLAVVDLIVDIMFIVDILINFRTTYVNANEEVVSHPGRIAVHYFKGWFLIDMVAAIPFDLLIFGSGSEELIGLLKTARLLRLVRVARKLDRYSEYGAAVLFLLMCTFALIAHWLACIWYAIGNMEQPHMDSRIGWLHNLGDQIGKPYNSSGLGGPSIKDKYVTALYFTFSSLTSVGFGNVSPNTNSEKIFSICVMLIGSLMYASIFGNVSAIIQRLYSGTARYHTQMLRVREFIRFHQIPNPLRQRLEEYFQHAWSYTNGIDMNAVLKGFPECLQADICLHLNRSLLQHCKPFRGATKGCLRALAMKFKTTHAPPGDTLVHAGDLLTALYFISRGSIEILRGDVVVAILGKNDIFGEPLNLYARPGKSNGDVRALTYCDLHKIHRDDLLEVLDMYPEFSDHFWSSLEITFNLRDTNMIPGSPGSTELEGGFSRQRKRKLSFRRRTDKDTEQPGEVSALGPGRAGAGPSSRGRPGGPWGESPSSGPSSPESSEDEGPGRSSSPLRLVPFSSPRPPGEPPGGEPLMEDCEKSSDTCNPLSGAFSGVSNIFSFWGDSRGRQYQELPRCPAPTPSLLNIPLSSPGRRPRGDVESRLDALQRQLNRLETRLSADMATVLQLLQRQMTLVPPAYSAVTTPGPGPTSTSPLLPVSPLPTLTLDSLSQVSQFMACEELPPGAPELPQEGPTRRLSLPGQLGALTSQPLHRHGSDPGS

Structure (SMILES)	hERG current change (%, negative = inhibition) at 10uM [%]
CCc1nc(N2CCCCC2C(=O)O)c2oc3ccccc3c2n1 (stereo not shown)	17.9
O=C(CN1CCCc2ccccc21)N/N=C/c1ccccc1	-23.8
CCOC(=O)c1cc2c(=O)n3ccccc3nc2n(Cc2ccco2)c1=NC(=O)c1ccc(OC)cc1OC	-54.2
C=CCSc1nc(N)c(C#N)c(-c2ccccc2)c1C#N	2.45
Cc1cc(C(=O)N2CCN(c3cc(Cl)ccc3C)CC2)on1	-58.7
COC(=O)CCc1c(C)nc(N)[nH]c1=O	14.4
Cc1ncc(CO)c(/C=N/NC(=O)c2ccccc2Br)c1O	16.1
Cc1c(C(=O)Nc2cccc(S(=O)(=O)N3CCCC3)c2)oc2ccccc12	5.98
COc1ccc(CCN(C(=O)c2snc(C(N)=O)c2N)C(C)C(=O)NC2CCCCC2)cc1OC (stereo not shown)	-13.9
O=C(Cn1c(-c2ccccc2)noc1=O)N1CCC(Cc2ccccc2)CC1	-41.5
Cc1cc(C)n(-c2ccc(NC(=O)C3CCN(Cc4cnc(C)s4)CC3)cc2)n1	-10.1
O=C1NC(=O)/C(=C/c2cccc3ccccc23)S1	18.4
CCCC(=O)N(Cc1cc2ccccc2[nH]c1=O)c1ccccc1OC	10.2
CC(C)c1ccc(OCc2nc(-c3ccccn3)no2)c(Br)c1	-10.6
COCCn1c(SCC(=O)Nc2ccccc2OC)nc2ccccc21	-25.4
C=CCn1c(N)c(C(=O)NCCC2=CCCCC2)sc1=S	12.3
Cn1cc([N+](=O)[O-])c(C(=O)Nc2cc(Oc3cccnc3)cc([N+](=O)[O-])c2)n1	-11.2
CS(=O)(=O)N1CCN(C(=O)c2cc(-c3cccs3)nc3ccccc23)CC1	-17.3
Cc1cccc(C(=O)N(Cc2nc3ccccc3c(=O)[nH]2)C2CCCC2)c1	-3.16
CCOc1cccc(C(=O)Nc2ccc3[nH]ncc3c2)c1	27.9
Cc1ccc(NC(=S)N2CCN(c3ccccn3)CC2)c(C)c1	6.92
O=C1c2ccccc2C(=O)N1CCOc1ccccc1Br	14.8

Structure (SMILES)	hERG current change (%, negative = inhibition) at 10uM [%]
COc1cc(C2NC(=O)NC(C)=C2C(=O)OCc2ccc(C)cc2)cc(OC)c1OC (stereo not shown)	7.38
Cc1ccc(C)c(CSc2nnc(-c3cccnc3)o2)c1	0.791
COc1ccc(-c2nc(CS(=O)CC(=O)N3CCOCC3)c(C)o2)cc1OC (stereo not shown)	9.9
Cc1nc(C)c(-c2csc(Nc3ccccn3)n2)s1	-11.5
CC(=O)Nc1ccc(C(=S)NCc2ccco2)cc1	-9.31
Cc1ccc(OCCn2c(CCCO)nc3ccccc32)cc1	-7.79
COC(=O)[C@@]12CCCN1[C@H](c1ccc(-c3ccc4c(c3)OCO4)c(OC)c1)[C@H]1C(=O)N(C)C(=O)[C@H]12.O=C(O)C(F)(F)F	-18
CCc1c(C)nc(N2CCOCC2)[nH]c1=O	-13.2
Cc1cc(C)n(-c2ccc(C(=O)Nc3cccc(S(=O)(=O)N(C)C)c3)cc2)n1	-28.6
CCSc1nc(N)c(C#N)c(-c2ccccc2Cl)c1C#N	7.74
Cc1ccccc1NC(=O)NCc1ccccn1	11.3
CCCCOc1ccc(CC2CCC(=O)NC2=O)cc1 (stereo not shown)	-5.94
COc1ccc(/C=N/N2C(=O)CSC2=S)cc1Br	-7.24
COc1ccc(S(=O)(=O)N(CCC#N)Cc2ccco2)cc1OC	17.8
Cc1cccc([C@@H]2[C@@H]3C(=O)N(Cc4ccccc4)C(=O)[C@@H]3[C@]3(Cc4ccc(Cl)cc4)C(=O)N(c4ccc(Br)cc4)C(=O)N23)c1	32.7
O=C1CCC(C(=O)N2CCCC(C(=O)c3ccc4c5c(cccc35)CC4)C2)=NN1 (stereo not shown)	-17.9
O=C(COC(=O)CNS(=O)(=O)c1ccc(F)c(F)c1F)Nc1ccc(OC(F)F)cc1	-65.2
O=C(CN1C(=O)C2(OCCO2)c2cc(Br)ccc21)NO	17.2
CC[C@H]1CC2CN3CCc4c([nH]c5cc(OC)ccc45)[C@](C(=O)OC)(C2)[C@H]13	-16.4
COc1ccccc1NC(=O)CSc1nn2c(=O)c(C)nnc2s1	21.6
COc1ccccc1NC(=O)Cc1nnc(SCC(=O)Nc2ccc(F)cc2F)n1C	4.21
CC/C(C)=N/Nc1ccc(S(=O)(=O)N2CCCC2)cc1[N+](=O)[O-]	-1.75

Structure (SMILES)	hERG current change (%, negative = inhibition) at 10uM [%]
Cc1ccc(C(=O)CSc2nc(C)cc(C)c2C(N)=O)cc1	-7.88
CCC(C)[C@H](NC(=O)N1CC(=O)Nc2ccccc21)C(=O)N[C@H](Cc1c[nH]c2ccccc12)C(=O)O (stereo partly shown)	21.7
CCN1CCN(c2nc3ccccc3nc2NS(=O)(=O)c2ccc(NC(C)=O)cc2)CC1	5.21
COCCCn1c(C(=O)Nc2ccc3c(c2)OCO3)cc2c(=O)n3ccccc3nc21	8.51
N#Cc1cnc2ncnn2c1-c1ccccc1	13.1
Cc1c(NC(=O)c2ccco2)cccc1-c1nc2cccnc2s1	-45.8
COCCn1c(CN2CC(C)CC(C)C2)nc2c1c(=O)n(C)c(=O)n2C (stereo not shown)	-7.28
Cc1cc(C)c(NC(=O)c2ccccc2C(=O)c2ccccc2)c(C)c1	3.62
COc1ccc(-c2nc(-c3cccs3)c(-c3cccs3)[nH]2)cc1OC	13
CC1CCN(CC(=O)Nc2cccc(C(=O)Nc3cccc(C(F)(F)F)c3)c2)CC1	-37.3
COc1cc(CNCc2ccco2)cc(OC)c1O.Cl	25.4
CCCCCCOc1cccc(N)c1	7.31
CCCc1cc(=O)oc2cc(OC3CCCCC3=O)ccc12 (stereo not shown)	4.74
CCC(C)C12CN3CCN(CC(C)(C3)C1=O)C2 (stereo not shown)	11.2
CC(=O)Nc1ccccc1NC(=O)c1cc(C)ccc1C	26.9
O=C(Nc1ccccc1F)c1cc2c(s1)-c1ccccc1S(=O)(=O)C2	0.504
O=S(=O)(c1ccc(F)cc1)N1CCCN(Cc2c(F)cccc2F)CC1	-23.9
CCOc1ccccc1C(=O)N[C@H](C(=O)OCc1cc(=O)oc2cc(C)ccc12)C(C)C	-10.2
CC(Cc1ccccc1)NC(=S)CN1CCCC1=S (stereo not shown)	20.9
C=CCc1ccc(OCCCOc2ccc(C)cc2OC)c(OC)c1	22.2
CCCOc1ccccc1NC(=O)c1c(-c2ccccc2)noc1C	12.1
COc1ccc(/C=N/NC(=O)C(C)n2cnc3ccccc3c2=O)cc1OC (stereo not shown)	-11

Structure (SMILES)	hERG current change (%, negative = inhibition) at 10uM [%]
CC(C)NC(=O)c1ccccc1NC(=O)C1CCCO1 (stereo not shown)	6.05
O=C(NCc1ccc(Cl)cc1)C1CCC(CNc2c(N3CCCC3)c(=O)c2=O)CC1 (stereo not shown)	1.34
Cc1cccc(N/C=C(\[N+](=O)[O-])S(=O)(=O)c2ccccc2)c1C	3.02
CCc1ccccc1NC(=O)c1cnc2n(c1=O)CCS2	14
Cc1cccc(C(=O)c2c(N)sc3c2CCCC3)c1	-3.48
Cc1ccc(O)c(CNc2ccccn2)c1	-1.23
COc1ccc(Sc2ccc(NC(=O)c3ccccc3Cl)cc2C#N)cc1	7.73
Cc1cc(OC(=O)c2cc([N+](=O)[O-])ccc2Cl)c([N+](=O)[O-])c(=O)[nH]1	2.78
CCCCCCCC(=O)Nc1ccc(C(=O)N/N=C/c2cccc([N+](=O)[O-])c2)cc1	15.5
COc1ccc(CCN2CC(C#N)=C3c4cc(OC)c(OC)cc4CCN3C2)cc1OC	-29.8
CCCCc1c(O)nc(SCCN(C)C)n(-c2ccccc2)c1=O	10.1
CCC(Oc1ccccc1)C(=O)Nc1ccccc1N1CCCC1 (stereo not shown)	-0.829
O=C(Nc1cc2c(oc1=O)CCCC2=O)c1cccc(Cl)c1	4.61
O=C(Nc1ccccc1)C1=C(O)CC(c2ccc(Cl)cc2)N2CCN=C12 (stereo not shown)	-31.3
Cc1ccccc1/C=N/n1c(COc2ccccc2)n[nH]c1=S	26.7
Cc1cc(C)c(-c2c(O)c3c(n(C)c2=O)CC(C)(C)CC3=O)c(C)c1	-3.02
O=C(CCl)Nc1c(C(=O)Nc2ccc3c(c2)OCCO3)oc2ccccc12	12
CCOc1ccccc1Nc1nnc(SCC(=O)Nc2ccc3[nH]c(=O)[nH]c3c2)s1	-0.693
CCc1cc(C=NC2CCCCC2)c(O)s1	1.75
O=C(O)[C@@H](c1ccccc1)N1Cc2ccccc2C1=O	17.2
COc1cc(C#Cc2c(-c3cncn3C)n(C)c3ccc(-c4cnc(OC)nc4)cc23)cc(OC)c1	13.5
CCc1cccc(CC)c1NC(=S)N1CCn2cccc2C1c1cccnc1 (stereo not shown)	-12.8
